Screen size: about 39,000 compounds; about 220 (0.56%) showed activity. Some of the results follow.
These molecules were tested on Escherichia coli K-12 BW25113 (assay: relative growth (OD600 normalised to plate interquartile mean) (fraction); higher = less growth inhibition, active = 0.2 or less). Conditions: 50 µM; LB; incubation time: overnight (16-24 h).
`CC(C=CC=C(C)C=CC1=C(C)C(=O)C(O)CC1(C)C)=CC=CC=C(C)C=CC=C(C)C=CC1=C(C)C(=O)C(O)CC1(C)C` (stereo not given) was tested, and the relative growth was inactive: 1.03.
In the case of `COc1cccc(NC(=O)N(C)C[C@@H]2Oc3ncc(C#Cc4ccncc4)cc3C(=O)N([C@H](C)CO)C[C@H]2C)c1`, the relative growth is reported as inactive: 0.973.
In the case of `COc1cccc(C(=O)Nc2ccc3c(c2)C(=O)N(C)[C@H]2CC[C@H](CC(=O)NCCCN4CCOCC4)O[C@@H]2CO3)c1`, the relative growth is reported as inactive: 1.02.
`COCC(=O)N(C)C[C@H]1Oc2cc(C#Cc3cccnc3)ccc2S(=O)(=O)N([C@H](C)CO)C[C@H]1C` was tested, and the relative growth was inactive: 1.
With `C[C@H]1CN([C@@H](C)CO)C(=O)c2cccc(NS(=O)(=O)c3ccc(F)cc3)c2O[C@H]1CN(C)Cc1ccc(-c2ccccc2)cc1` the relative growth was inactive: 1.
`CC(C)CNC(=O)[C@@H]1c2ccccc2C(=O)N(Cc2cc(F)cc(C(F)(F)F)c2)[C@H]1c1ccc(CO)cc1` was tested, and the relative growth was inactive: 0.996.
In the case of `C[C@@H]1CN([C@@H](C)CO)C(=O)CCCn2cc(nn2)CO[C@@H]1CN(C)C(=O)Nc1ccc2c(c1)OCCO2`, the relative growth is reported as inactive: 0.988.
In the case of `C[C@@H]1CN([C@@H](C)CO)C(=O)c2cc(NC(=O)Nc3ccccc3)ccc2O[C@@H]1CN(C)CC1CCCCC1`, the relative growth is reported as inactive: 0.928.
For `OCCN1CCN(c2ncnc3c2ncn3[C@H]2CN(Cc3ccccc3)C[C@@H](CO)O2)CC1`, the relative growth was inactive: 1.03.
In the case of `Cc1ccc(S(=O)(=O)Nc2ccc3c(c2)C(=O)N([C@@H](C)CO)C[C@@H](C)[C@@H](CN(C)C(=O)C2CCCCC2)OCCCC[C@@H](C)O3)cc1`, the relative growth is reported as inactive: 0.99.
`COc1ccc(S(=O)(=O)Nc2cccc3c2O[C@@H](CN(C)Cc2ccc(-c4ccccc4)cc2)[C@@H](C)CN([C@@H](C)CO)C3=O)cc1` was tested, and the relative growth was inactive: 1.01.
`C[C@H]1CN([C@@H](C)CO)C(=O)c2cc(C#CC3(O)CCCC3)cnc2O[C@@H]1CN(C)C(=O)Cc1ccccc1` was tested, and the relative growth was inactive: 1.01.
`C[C@H]1CN([C@@H](C)CO)C(=O)Cc2cc(NC(=O)Cn3cnnn3)ccc2O[C@H]1CN(C)C(=O)NC1CCCCC1` was tested, and the relative growth was inactive: 1.02.
In the case of `C[C@H]1CN([C@@H](C)CO)C(=O)CCCn2nncc2CO[C@H]1CN(C)C(=O)Nc1ccc(N2CCN(C)CC2)cc1`, the relative growth is reported as inactive: 0.977.
In the case of `COc1ccc(CCNC(=O)[C@@]2(c3ccccc3)CC(=O)N(Cc3ccccc3)[C@@H]2c2ccc(COC(=O)NCCCCCC(=O)NO)cc2I)cc1`, the relative growth is reported as inactive: 1.01.
`C[C@@H]1CN([C@@H](C)CO)C(=O)CCCn2nncc2CO[C@H]1CN(C)C(=O)c1ccc(N2CCN(C)CC2)cc1` was tested, and the relative growth was inactive: 0.97.
With `COc1cccc(NC(=O)N(C)C[C@H]2Oc3cc(C#CC4(O)CCCC4)ccc3S(=O)(=O)N([C@H](C)CO)C[C@@H]2C)c1` the relative growth was inactive: 1.02.
With `COCCn1c(=NN)[nH]c2ccsc2c1=O` the relative growth was inactive: 0.982.
With `Cc1ccc(S[C@]2(C(=O)O)CC(=O)N(Cc3cc(C(F)(F)F)cc(C(F)(F)F)c3)[C@@H]2c2ccc(CO)cc2I)cc1` the relative growth was inactive: 0.962.
In the case of `C=C1C(=O)C(O)[C@H]2O[C@H]2C1=O` (stereo not given in full), the relative growth is reported as inactive: 0.883.
For `COC(=O)[C@@H](Cc1ccc(-n2cc(C(=O)NO)nn2)cc1)N1CC2=CC(=O)[C@@H](C3CC3)[C@@H]2[C@H]1[C@H](O)Cc1ccccc1`, the relative growth was inactive: 0.987.
With `C[C@H](CO)N1C[C@H](C)[C@@H](CN(C)S(=O)(=O)c2ccc(F)cc2)OCCCC[C@H](C)Oc2ccc(NC(=O)Nc3ccc(C(F)(F)F)cc3)cc2C1=O` the relative growth was inactive: 1.01.
For `NCCc1ccn[nH]1`, the relative growth was inactive: 0.976.
`COc1ccc(C2Sc3ccccc3N(CCN(C)C)C(=O)C2OC(C)=O)cc1.Cl` (stereo not given) was tested, and the relative growth was inactive: 1.12.
In the case of `C[C@H]1CN([C@@H](C)CO)C(=O)c2cccc(NC(=O)C3CCCCC3)c2O[C@H]1CN(C)C(=O)Nc1ccc(C(F)(F)F)cc1`, the relative growth is reported as inactive: 0.925.
For `CCCN(C)C[C@@H]1OCCCC[C@@H](C)Oc2ccc(NS(=O)(=O)c3ccc(Cl)cc3)cc2C(=O)N([C@H](C)CO)C[C@@H]1C`, the relative growth was inactive: 0.989.
With `C[C@@H]1CN([C@H](C)CO)C(=O)c2cc(NC(=O)Nc3ccc4c(c3)OCO4)ccc2O[C@@H]1CN(C)Cc1ccc(Oc2ccccc2)cc1` the relative growth was inactive: 1.01.
With `O=C1C2C[C@H]3C=C[C@]2(CN1C1CC1)O3` (stereo not given in full) the relative growth was inactive: 0.987.
With `CC(C)CC#Cc1ccc2c(c1)O[C@@H](CN(C)C(=O)C1CCOCC1)[C@@H](C)CN([C@@H](C)CO)S2(=O)=O` the relative growth was inactive: 0.987.
`CC(=O)Nc1ccc(S(=O)(=O)Nc2onc(C)c2C)cc1` was tested, and the relative growth was inactive: 0.866.
`C[C@H]1CN([C@@H](C)CO)C(=O)c2cc(NC(=O)NC3CCCCC3)ccc2O[C@H]1CN(C)C(=O)Nc1ccc(C(F)(F)F)cc1` was tested, and the relative growth was inactive: 0.984.
With `Cc1noc(C)c1S(=O)(=O)Nc1cccc2c1O[C@@H](CN(C)S(=O)(=O)c1ccc(F)cc1)[C@@H](C)CN([C@H](C)CO)C2=O` the relative growth was inactive: 0.987.
`CO[C@@H]1CN(C)C(=O)c2ccc(NS(=O)(=O)CC(F)(F)F)cc2OC[C@@H](C)N(C(=O)c2ccc3c(c2)OCO3)C[C@@H]1C` was tested, and the relative growth was inactive: 0.945.
In the case of `Cc1ccc(S(=O)(=O)N[C@@H]2CC[C@H](CC(=O)NCc3ccc(Cl)c(Cl)c3)O[C@H]2CO)cc1`, the relative growth is reported as inactive: 0.993.
`C[C@H](CO)N1C[C@H](C)[C@@H](CN(C)S(C)(=O)=O)Oc2ccc(NC(=O)CCN3CCOCC3)cc2C1=O` was tested, and the relative growth was inactive: 1.01.
In the case of `C[C@@H]1CCCCO[C@H](CN(C)C(=O)Nc2ccccc2)[C@@H](C)CN([C@@H](C)CO)C(=O)c2cc(NC(=O)Cc3ccccc3)ccc2O1`, the relative growth is reported as inactive: 1.
In the case of `C[C@@H]1CN([C@@H](C)CO)S(=O)(=O)c2ccc(-c3cncnc3)cc2O[C@H]1CN(C)C(=O)CN(C)C`, the relative growth is reported as inactive: 0.997.
`C[C@H]1CN([C@@H](C)CO)C(=O)c2cccc(NC(=O)C3CCOCC3)c2O[C@H]1CN(C)Cc1ccccc1` was tested, and the relative growth was inactive: 0.962.
`C[C@@H]1CN([C@H](C)CO)C(=O)c2cc(NC(=O)Nc3ccc(C(F)(F)F)cc3)ccc2O[C@H]1CN(C)Cc1ccc(Cl)c(Cl)c1` was tested, and the relative growth was inactive: 0.984.
`CCCCCCCCCCCCCCCC(=O)OCC=C(C)C=CC=C(C)C=CC1=C(C)CCCC1(C)C` was tested, and the relative growth was inactive: 0.858.
In the case of `Cc1ccc(S(=O)(=O)Nc2ccc3c(c2)C(=O)N([C@@H](C)CO)C[C@@H](C)[C@H](CN(C)C(=O)NC(C)C)O3)cc1`, the relative growth is reported as inactive: 1.02.
For `C[C@@H]1CCCCO[C@H](CN(C)Cc2ccc(C(F)(F)F)cc2)[C@H](C)CN([C@@H](C)CO)C(=O)c2cc(NS(=O)(=O)c3ccccc3)ccc2O1`, the relative growth was inactive: 1.03.
In the case of `CCS(=O)(=O)Nc1ccc2c(c1)C(=O)N(C)C[C@H](OC)[C@H](C)CN(C(=O)c1ccc3c(c1)OCO3)[C@@H](C)CO2`, the relative growth is reported as inactive: 0.973.
In the case of `CCS(=O)(=O)N1C[C@]2(C1)CN([C@@H](CO)c1c2c2ccc(cc2n1C)OC)C(=O)CN1CCOCC1`, the relative growth is reported as inactive: 0.986.
With `C[C@H](CO)N1C[C@H](C)[C@H](CN(C)C(=O)Cc2ccccc2)OCCCC[C@H](C)Oc2ccc(NC(=O)Nc3ccc4c(c3)OCO4)cc2C1=O` the relative growth was inactive: 0.97.
For `C[C@@H]1CN([C@@H](C)CO)C(=O)c2cccc(NC(=O)NC3CCCCC3)c2O[C@H]1CN(C)Cc1ccc(C(F)(F)F)cc1`, the relative growth was inactive: 0.806.
For `CCCNC(=O)N1C[C@H](O)COC[C@@H]2O[C@H](CC(=O)NCc3ccncn3)CC[C@H]21`, the relative growth was inactive: 1.01.
In the case of `C[C@H]1CN([C@@H](C)CO)C(=O)CCCn2cc(nn2)CO[C@H]1CN(C)C(=O)Nc1ccc(N2CCN(C)CC2)cc1`, the relative growth is reported as inactive: 0.975.
In the case of `COc1ccc(S(=O)(=O)N(C)C[C@@H]2Oc3ncc(C#Cc4cccc(F)c4)cc3C(=O)N([C@H](C)CO)C[C@@H]2C)cc1`, the relative growth is reported as inactive: 0.979.
`CC(C)NC(=O)Nc1cccc2c1O[C@H](CN(C)S(=O)(=O)c1cccs1)[C@H](C)CN([C@@H](C)CO)C2=O` was tested, and the relative growth was inactive: 1.02.
In the case of `C[C@@H]1CN([C@@H](C)CO)C(=O)CCCn2cc(nn2)CO[C@@H]1CN(C)S(=O)(=O)c1ccc(-c2ccccc2)cc1`, the relative growth is reported as inactive: 1.01.
With `O=C(C[C@H]1CC[C@@H](NC(=O)c2cnccn2)[C@H](CO)O1)NCc1ccccc1F` the relative growth was inactive: 1.
In the case of `CC(C)NC(=O)N(C)C[C@@H]1Oc2c(NS(=O)(=O)c3cn(C)cn3)cccc2C(=O)N([C@H](C)CO)C[C@H]1C`, the relative growth is reported as inactive: 1.03.
In the case of `C[C@H]1CCCCO[C@@H](CN(C)Cc2ccc(C(F)(F)F)cc2)[C@@H](C)CN([C@@H](C)CO)C(=O)c2cc(NS(=O)(=O)c3ccc(F)cc3)ccc2O1`, the relative growth is reported as inactive: 1.02.
`Cc1noc(C)c1NC(=O)N(C)C[C@@H]1OCCCC[C@H](C)Oc2ccc(NC(=O)NC3CCCCC3)cc2C(=O)N([C@H](C)CO)C[C@H]1C` was tested, and the relative growth was inactive: 0.989.
For `COc1ccc(S(=O)(=O)N(C)C[C@H]2Oc3ccc(NS(=O)(=O)c4c(C)noc4C)cc3CC(=O)N([C@@H](C)CO)C[C@@H]2C)cc1`, the relative growth was inactive: 1.01.
In the case of `C[C@H]1CN([C@@H](C)CO)C(=O)CCCn2cc(nn2)CO[C@H]1CN(C)C(=O)c1cc(-c2ccccc2)on1`, the relative growth is reported as inactive: 1.01.
In the case of `CC(c1cc2ccccc2s1)N(O)C(N)=O` (stereo not given), the relative growth is reported as inactive: 1.07.
`C[C@@H]1CCCCO[C@@H](CN(C)S(C)(=O)=O)[C@@H](C)CN([C@H](C)CO)C(=O)c2cc(NS(=O)(=O)c3cccs3)ccc2O1` was tested, and the relative growth was inactive: 1.02.
In the case of `COc1ccc(S(=O)(=O)Nc2ccc3c(c2)C(=O)N([C@H](C)CO)C[C@@H](C)[C@@H](CN(C)C(=O)C2CCCCC2)OCCCC[C@H](C)O3)cc1`, the relative growth is reported as inactive: 0.994.

Source: the supplement of paper PMC9446081
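Note: static incubation at 37 °C against the wild-type strain, values averaged over two biological replicates.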
